The campaign covered roughly 310,000 compounds. About 14,000 (4.5%) showed an effect of 50% or more. The effect is printed as a negative number. This is one part of the list.
What follows are molecules tested against human ether-à-go-go-related gene (hERG) potassium channel (human, UniProt Q12809) (assay: primary screen, population patch clamp on CHO cells stably expressing hERG).
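Further: peak tail current of the secondary pulse compared with the same well before compound.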

Sequence of human ether-à-go-go-related gene (hERG) potassium channel (Q12809 whole entry, looked up): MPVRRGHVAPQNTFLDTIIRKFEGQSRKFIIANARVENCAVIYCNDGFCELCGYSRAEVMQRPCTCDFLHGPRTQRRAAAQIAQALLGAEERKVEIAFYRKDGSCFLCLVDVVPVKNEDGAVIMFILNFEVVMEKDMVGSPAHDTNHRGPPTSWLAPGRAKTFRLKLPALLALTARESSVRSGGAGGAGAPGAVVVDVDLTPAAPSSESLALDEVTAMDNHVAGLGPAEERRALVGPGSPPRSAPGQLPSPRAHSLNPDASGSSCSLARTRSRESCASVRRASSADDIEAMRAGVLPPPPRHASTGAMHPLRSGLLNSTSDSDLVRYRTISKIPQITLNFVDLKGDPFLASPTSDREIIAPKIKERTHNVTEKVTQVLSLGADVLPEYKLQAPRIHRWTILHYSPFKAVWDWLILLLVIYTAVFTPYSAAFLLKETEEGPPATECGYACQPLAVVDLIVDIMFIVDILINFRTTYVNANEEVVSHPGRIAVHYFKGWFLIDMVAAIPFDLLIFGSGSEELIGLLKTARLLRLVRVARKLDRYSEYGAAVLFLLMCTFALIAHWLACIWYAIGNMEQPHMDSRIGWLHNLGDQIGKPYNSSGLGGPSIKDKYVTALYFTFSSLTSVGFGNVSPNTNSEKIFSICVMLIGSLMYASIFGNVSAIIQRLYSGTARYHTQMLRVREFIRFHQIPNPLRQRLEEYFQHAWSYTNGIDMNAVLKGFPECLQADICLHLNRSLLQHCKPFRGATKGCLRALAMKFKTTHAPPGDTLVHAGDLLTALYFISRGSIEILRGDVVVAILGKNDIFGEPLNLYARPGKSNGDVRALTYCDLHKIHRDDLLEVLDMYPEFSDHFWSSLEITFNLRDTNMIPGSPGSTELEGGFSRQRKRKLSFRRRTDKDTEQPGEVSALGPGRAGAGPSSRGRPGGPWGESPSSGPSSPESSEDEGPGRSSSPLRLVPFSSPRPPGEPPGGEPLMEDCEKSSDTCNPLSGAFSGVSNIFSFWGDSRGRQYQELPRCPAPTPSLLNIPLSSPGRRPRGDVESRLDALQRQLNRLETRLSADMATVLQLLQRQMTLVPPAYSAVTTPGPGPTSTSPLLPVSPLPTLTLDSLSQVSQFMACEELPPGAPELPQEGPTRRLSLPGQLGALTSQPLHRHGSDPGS

SMILES	hERG current change (%, negative = inhibition) at 10uM
COc1cc(N2CCOCC2)ccc1/C=C1\C(=O)NC(=O)N(C2CCCCC2)C1=O	0.165%
COc1ccc(OC)c(NC(=O)Nc2ccc3c(c2)CCC3)c1	10.7%
COc1ccc(NC(=O)CSc2nnc(-c3ccncc3)n2CC2CCCO2)c(OC)c1 (stereo not shown)	6.28%
Cn1c(SCC(=O)Nc2cc(C(C)(C)C)nn2-c2ccccc2)nc2ccccc21	-29.9%
CCCN(Cc1nnc(-c2ccccc2Cl)o1)C(=O)c1cc2ccccc2o1	-17%
CCC1Oc2ccccc2N(CC(=O)NCCCN2CCC(C)CC2)C1=O (stereo not shown)	-20.3%
O=C1COc2ccc(S(=O)(=O)Nc3ccc(F)cc3)cc2N1	9.67%
COc1cc(C(CCN2CCCC2)c2c(OC)cc(OC)c3c(C)cc(=O)oc23)cc(OC)c1OC (stereo not shown)	-75.5%
COC(=O)c1cccc(NC(=O)c2cccs2)c1C	10.8%
COc1ccc(NC(=S)N2CCN(c3ccccn3)CC2)cc1OC	1.27%
CCOC(=O)C1=C(c2ccccc2)O/C(=C(/C(=O)OC)C(F)(F)F)S1	-3.45%
CCCn1c(SCC(=O)c2ccc3c(c2)OCCO3)nnc1-c1ccco1	8.28%
CS(=O)(=O)N(CC(=O)N1CCOCC1)c1cccc(F)c1	23.4%
Cc1cc(SCC(=O)NN=C2CCN(C(C)C)CC2)c(C)cc1Br	-69.4%
COc1ccc([N+](=O)[O-])cc1NC(=O)CSCc1cc(C)cc(C)c1	13.1%
CCCCn1c(=O)cc(O)c2ccccc21	12.7%
CSCCCNC(=S)Nc1ccc(N2CCOCC2)cc1	27.7%
CCOc1ccc(CCn2c(-c3ccco3)nc3ccccc3c2=O)cc1OCC	-18.1%
O=Cc1ccc(OCC(=O)Nc2ccccc2-c2ccccc2)cc1	-13.7%
O=C(O)c1cccnc1SC1CC(=O)N(CCc2ccccc2)C1=O (stereo not shown)	6.2%
CCCCn1c(-c2ccc(Br)cc2F)nc2c1c(=O)[nH]c(=O)n2CC(C)C	7.26%
CC(C(=O)Nc1ccc(F)cc1Cl)N(C)CCOc1ccccc1 (stereo not shown)	-10.5%

SMILES	hERG current change (%, negative = inhibition) at 10uM
Cc1ccc(Cl)cc1N1CCN(CC(=O)Nc2ccc(CN3CCCCC3)cc2)CC1.Cl	-71.1%
COc1ccc(C(=O)c2cc(C(C)=O)c(Nc3ccccc3)s2)cc1	12.5%
CCOC(=O)C1=C(C)NC(=O)NC1c1ccsc1 (stereo not shown)	10.5%
CN(CC(=O)Nc1sc2c(c1C#N)CCCCC2)Cc1nc2ccccc2c(=O)[nH]1	-4.73%
CCC1(c2ccc(F)cc2)NC(=O)N(CC(=O)N2CCc3ccccc32)C1=O (stereo not shown)	-21.5%
CCCNC(=O)c1ccc2c(c1)ncn2-c1ccccc1OC	-60.3%
Cc1nnc(NC(=O)C2CCCN(c3ncccn3)C2)s1 (stereo not shown)	4.1%
O=C(NCc1ccc(Cl)cc1)C(=O)NCC1OCCN1S(=O)(=O)c1ccc2c(c1)OCCO2 (stereo not shown)	-7.02%
CCC(C)[C@H]1COCCS(=O)(=O)N1Cc1ccc(Cl)cc1Cl (stereo partly shown)	-14.6%
O=C1CN(c2cc(Cl)cc(Cl)c2)C(=O)CN1/N=C/c1cccnc1	-1.49%
O=C(NCc1ccc2c(c1)OCO2)c1ccccc1Cl	-2.6%
CCCn1nc(C(=O)N2CCN(S(=O)(=O)c3ccc(C)c(C)c3)CC2)c2ccccc2c1=O	-28.3%
CCCNC(=O)CN1CCN(S(=O)(=O)c2ccc(Br)s2)CC1	-34.5%
CC(=O)N1c2ccccc2NC2=C(C(=O)CCC2)C1c1ccc(F)cc1 (stereo not shown)	-1.85%
C=Cn1ccnc1P(O)(=S)c1nc(C)c(CCOC(C)=O)s1 (stereo not shown)	4.85%
O=C(O)CC(c1cccc(C(F)(F)F)c1)N1CCS(=O)(=O)CC1 (stereo not shown)	2.42%
O=C(Nc1cccc(C(F)(F)F)c1)c1csc(-c2ccncc2)n1	-68.6%
N#CCC(=O)Nc1ccc(C(=O)OCC(=O)NCc2ccc3c(c2)OCO3)cc1	8.67%
Cc1ccc(NC(=O)c2ccc3c(c2)OCO3)cc1S(=O)(=O)N1CCOCC1	-20.3%
COc1ccc(NC(=O)COc2nsnc2N2CCOCC2)c(OC)c1	14%
CCOC(=O)N1CCN(C(=O)CCCn2c(=O)[nH]c3ccccc3c2=O)CC1	-13.1%
Cc1ccc(CSc2ncn(-c3ccccc3)n2)cc1	1.74%

SMILES	hERG current change (%, negative = inhibition) at 10uM
CCOc1ccc(Br)cc1C(=O)N/N=C/c1cccc(C)n1	20.1%
Cc1[nH][nH]c(=O)c1C(c1ccc(-c2cccc(C(=O)O)c2)o1)c1c(C)[nH][nH]c1=O	19.2%
O=C(C1CCN(S(=O)(=O)c2ccc(Cl)cc2)CC1)N1CCCC1	-7.8%
O=C(Cc1ccccc1)Nc1ccc(C(=O)Nc2ccc(O)cc2)cc1	8.9%
CCCCn1c(N)c(N(CC(C)C)C(=O)COC(=O)c2ccccc2NCCO)c(=O)[nH]c1=O	11.4%
CCNc1nc(NCC)nc(OCCOC(C)=O)n1	9.95%
O=C(NNC(=O)c1cccc(S(=O)(=O)N2CCN(c3ccccc3)CC2)c1)c1ccc(Cl)cc1	-59.5%
Cc1cc(C)n(CCC(=O)N/N=C/c2cccc([N+](=O)[O-])c2)n1	-17.2%
O=C(NNC(=O)[C@@H]1CCCC[C@@H]1C(=O)O)Nc1ccccc1	10.5%
CC1CCN(c2nc(-c3ccccc3O)nc3ccccc23)CC1	33.4%
O=C(Cc1ccccc1F)Nc1ccc(S(=O)(=O)Nc2ncccn2)cc1	14.8%
CC(=O)c1cccc(S(=O)(=O)N2CCN(c3ccccc3F)CC2)c1	-4.13%
CC(C)(C)c1cc(NC(=O)COC(=O)c2nccnc2N)n(-c2ccccc2)n1	0.121%
CN1CCN(S(=O)(=O)c2ccc(Nc3ccc(F)cc3)c([N+](=O)[O-])c2)CC1	-51.3%
COc1c(S(=O)(=O)NCCN2CCOCC2)ccc(Cl)c1Cl	-16.3%
CCN(CC)/C(N)=N/c1nc(C)cc(C)n1	7.16%
Cc1cccc(NC(=O)CSc2n[nH]c(-c3cccnc3)n2)c1	-0.145%
CCn1c(=S)sc2c(=O)[nH]c(C)nc21	13.3%
COC(=O)c1sccc1NC(=O)CC1C(=O)NCCN1C(=O)c1ccc(F)cc1 (stereo not shown)	-40.7%
O=C(COc1cccc2cccnc12)NNC(=S)Nc1ccccc1	-25.8%
Nc1nc(Nc2ccc(Cl)cc2)c(NC=O)c(=O)[nH]1	19.7%
Cc1ccc[n+](CC(=O)Nc2nc3ccccc3s2)c1.[Cl-]	23.3%

SMILES	hERG current change (%, negative = inhibition) at 10uM
O=C(COc1cc2oc(=O)c3c(c2cc1Cl)CCC3)N1C[C@H]2C[C@@H](C1)c1cccc(=O)n1C2	-12.8%
CC(=O)c1ccc(OCC(=O)OCC(=O)NCc2ccco2)cc1	17.2%
CN1C(=O)C(C)(C)c2cc(S(=O)(=O)N3CCCC(C(=O)NCc4ccc(F)cc4)C3)ccc21 (stereo not shown)	-9.6%
Cc1ccc(CN2C(=O)CCC2C(=O)NC2CCCC2)cc1 (stereo not shown)	13.6%
CCOC(=O)C(C)Oc1cc(C)cc2oc(=O)c3c(c12)CCCC3 (stereo not shown)	-16.4%
CCCCCn1c(=S)[nH]c2ncccc2c1=O	3.94%
O=c1c(-c2ccc(Cl)cc2)coc2c(CN3CCCCC3)c(O)ccc12	-32.7%
O=c1c2cc(Cl)ccc2nc(-c2ccccc2Cl)n1O	16.4%
CC(C)(C)c1ccc(C(=O)NCc2cccnc2)cc1	-2.42%
CC1(C)CC(=O)C2=C(C1)N=C1SCCC(=O)N1C2c1ccc(C(F)(F)F)cc1 (stereo not shown)	-28.5%
O=C(CSc1nc(=O)n(CCCN2CCOCC2)c2c1CCCC2)Nc1cccc(Cl)c1	-62.2%
Cc1cc(SCC(=O)OCC(=O)N2CCCC2=O)c(C)cc1Br	-24.6%
CCCCCCc1nc(C(N)=O)c2[nH]c(=O)n(-c3ccccc3F)c2n1	16%
Cc1occc1C(=O)NNC(=O)c1ccccc1Br	1.82%
C/C(=C\c1ccccc1F)C(=O)c1c(C)cc(C)[nH]c1=O	15.9%
CC12CC(c3ccccc3O1)C(/C(N)=N/NC(=O)c1ccc(F)cc1)C(=O)N2 (stereo not shown)	-6.21%
COc1cccc(/C=N\NC(=O)Cn2nnc3ccccc32)c1O	14.2%
COc1ccccc1C1=CC(=O)C[C@H](c2ccc3c(c2)OCO3)C1	11.2%
CC(O)CNc1ccc([N+](=O)[O-])cc1S(=O)(=O)N1CCOCC1 (stereo not shown)	5.9%
COc1ccc(/C=C2\SC(=O)N(CCC(=O)Nc3ccccc3)C2=O)cc1OC	-5.49%
Cc1cc(=O)n2nc(N3CCCC(C(=O)NCc4ccc(Cl)cc4)C3)sc2n1 (stereo not shown)	-71.7%
Cc1ccc(S(=O)(=O)N2CCN(C(=O)CCc3c[nH]c4ccccc34)CC2)c(C)c1	-4.36%

From publication PMC4336329 (PLoS ONE, 2015)
